# Among all 360,000 compounds or so, about 520 (0.14%) were called active. The shares of active, inactive and inconclusive entries below differ from those in the screen. The call rests on the fitted dose curve; in most records, active means well fitted inhibition curve with a large enough effect; inconclusive means small, poorly fitted or top-dose-only effect; inactive means no such curve, though single readings can be large or run the other way. Potencies of inconclusive entries are left out as doubtful fits.
# Biological target: Rap guanine nucleotide exchange factor 3 (Homo sapiens) (UniProt O95398)
# Assay: qHTS for Antagonist of cAMP-regulated guanine nucleotide exchange factor 3 (EPAC1): primary screen; further: nearly all actives have a fitted effect of over 50% in size
# Conditions: EPAC1 GEF assay, Rap1b-BODIPY-GDP exchange fluorescence; series mostly up to 115 µM
# Potency means the concentration at half of the fitted maximal effect; tags describe the fitted curve by direction and shape.
# UniProt O95398, sequence (O95398 whole entry, looked up): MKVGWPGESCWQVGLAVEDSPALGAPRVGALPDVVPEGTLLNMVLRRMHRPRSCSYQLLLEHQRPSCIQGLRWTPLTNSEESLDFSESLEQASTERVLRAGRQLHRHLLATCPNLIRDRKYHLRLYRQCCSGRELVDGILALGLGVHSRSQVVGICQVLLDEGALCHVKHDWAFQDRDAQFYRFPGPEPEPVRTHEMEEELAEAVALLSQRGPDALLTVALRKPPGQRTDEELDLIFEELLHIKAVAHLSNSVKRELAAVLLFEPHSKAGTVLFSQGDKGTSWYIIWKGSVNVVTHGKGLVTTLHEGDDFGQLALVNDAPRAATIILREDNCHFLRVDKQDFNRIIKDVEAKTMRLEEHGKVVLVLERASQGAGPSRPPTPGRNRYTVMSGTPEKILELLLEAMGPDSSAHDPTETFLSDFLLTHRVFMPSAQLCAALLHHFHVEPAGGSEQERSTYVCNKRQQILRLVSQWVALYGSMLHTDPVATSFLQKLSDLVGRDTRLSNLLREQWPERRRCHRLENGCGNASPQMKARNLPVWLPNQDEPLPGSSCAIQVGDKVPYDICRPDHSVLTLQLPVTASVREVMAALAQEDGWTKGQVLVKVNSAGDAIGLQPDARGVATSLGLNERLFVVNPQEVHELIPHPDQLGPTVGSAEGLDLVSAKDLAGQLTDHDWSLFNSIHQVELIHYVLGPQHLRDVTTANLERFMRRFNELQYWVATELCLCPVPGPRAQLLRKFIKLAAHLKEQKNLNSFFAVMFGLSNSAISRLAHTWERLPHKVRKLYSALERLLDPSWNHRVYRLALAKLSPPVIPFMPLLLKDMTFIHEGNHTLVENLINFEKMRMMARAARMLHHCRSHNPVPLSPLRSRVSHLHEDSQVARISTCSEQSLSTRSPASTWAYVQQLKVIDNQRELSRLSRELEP
row,SMILES,Potency
1,Cc1c(Cl)cccc1NC(=S)NCC(c1cccnc1)N(C)C (configuration not stated),"inconclusive [inhibitor, single point]"
2,O=C(CCC(=O)N1CCCC1)Nc1ccc(Cl)c(Cl)c1,"inconclusive [inhibitor, single point]"
3,CCc1nnc(NC(=O)C2COc3ccccc3O2)s1 (configuration not stated),"inconclusive [inhibitor, single point]"
4,O=C1CC(=O)N(Cc2ccco2)C(=S)N1,active: 44.7 µM
5,O=C(O)c1ccccc1-c1ccccc1C(=O)Nc1ccc2c(c1)C(=O)c1ccccc1-2,"inconclusive [inhibitor, partial curve]"
6,Cc1cccc(-c2cc3nc4c(c(N5CCOCC5)n3n2)CCCC4)c1,inactive
7,O=C(Nc1ccncc1)c1ccc(S(=O)(=O)Nc2ccccc2)cc1,"inconclusive [inhibitor, partial curve, poor fit]"
8,COc1cccc(N2CCN(C(=O)c3cc(-c4ccccc4)nc4c3cnn4C(C)C)CC2)c1,"inconclusive [inhibitor, full curve]"
9,Cc1ccc(-c2csc(/C(C#N)=C(\O)CN3CCN(C(=O)c4ccco4)CC3)n2)cc1,"inconclusive [inhibitor, partial curve]"
10,CC1(C)C(/C=C/C=C/C=C/C=C2\N(CCCCS(=O)(=O)O)c3ccc4ccccc4c3C2(C)C)=[N+](CCCCS(=O)(=O)[O-])c2ccc3ccccc3c21,"inconclusive [inhibitor, full curve]"
11,COc1cccc(NC(=O)CSC(N)=O)c1,inactive
12,O=C(Nc1cccc(S(=O)(=O)NC2=NCCC2)c1)c1ccccc1OC(F)F,inactive
13,O=C(/C=C/c1ccco1)Oc1cc(Br)cc(/C=N/NC(=O)c2ccccc2O)c1,"inconclusive [inhibitor, full curve]"
14,OCC1(CCOc2ccccc2)CCN(Cc2ccc(OC(F)F)cc2)CC1,"inconclusive [inhibitor, partial curve]"
15,Cc1cc2oc3ccc(NCCCN4CCOCC4)cc3c(=O)c2cc1C,inactive
16,O=C(CCc1ccccc1)OCC(=O)c1ccc(Br)cc1,"inconclusive [inhibitor, single point]"
17,O=C(Nc1ccccc1)c1cccnc1NCCc1ccccc1,inactive
18,O=c1cc(-c2ccccc2)nc2c(-c3ccccc3)c(C(F)(F)F)[nH]n12,"inconclusive [inhibitor, single point]"
19,COc1ccc(C2CC(c3ccccc3)=NN2C(=O)CSc2nccc(=O)[nH]2)cc1 (configuration not stated),"inconclusive [inhibitor, single point]"
20,COc1ccccc1C(=O)NCC(=O)N(C)Cc1nc2ccccc2c(=O)[nH]1,inactive
21,COC(=O)[C@]1(Sc2ccc(C)cc2)CC(=O)N[C@@H]1c1ccco1,inactive
22,CC(C)N1C(=O)CSC1c1ccc(Br)cc1 (configuration not stated),"inconclusive [inhibitor, full curve, poor fit]"
23,CC(O)C(NS(=O)(=O)c1ccc(Cl)cc1)C(=O)OCC(=O)Nc1cccnc1Cl (configuration not stated),"inconclusive [inhibitor, full curve, poor fit]"

row,SMILES,Potency
1,N#Cc1ccc(OCC(=O)N2CCN(c3ccc(C(F)(F)F)cn3)CC2)cc1,inactive
2,N#CC(=Cc1ccc(-c2ccccc2)cc1)C(=O)c1ccccc1,"inconclusive [inhibitor, partial curve]"
3,CCOC(=O)N1CCN(C(=O)c2cc(COc3ccc(F)cc3F)on2)CC1,"inconclusive [inhibitor, single point]"
4,Cc1cccc(C(=O)Nc2ccc(C(=O)/C=C/c3cccnc3)cc2)c1,"inconclusive [inhibitor, partial curve]"
5,COc1ccc(C(=O)Nc2ccccc2N2CCOCC2)cc1[N+](=O)[O-],"inconclusive [inhibitor, partial curve, poor fit]"
6,CC(C)(C)c1ccc(C(=O)NC(=S)NCc2ccco2)cc1,inactive
7,O=C(CN(C1CC1)S(=O)(=O)c1ccc(S(=O)(=O)NC2CCCCC2)cc1)Nc1ccccc1,"inconclusive [inhibitor, partial curve, poor fit]"
8,COc1ccc(C2CC(=O)C(C3NCCc4ccccc43)=C(O)C2n2cncn2)cc1 (configuration not stated),"inconclusive [inhibitor, full curve, poor fit]"
9,CC(=O)Nc1ccc(N2C(=O)c3cccc4c(O)ccc(c34)C2=O)cc1,"inconclusive [inhibitor, single point]"
10,CCOc1ccc(S(=O)(=O)N2CCN(c3ccccc3F)CC2)c2cccnc12,"inconclusive [inhibitor, full curve]"
11,COc1cccc(CN(C)C(=O)c2cccc(S(=O)(=O)N3CCN(c4ccc(F)cc4)CC3)c2)c1OC,inactive
12,CCN(CC(=O)Nc1cc(Cl)ccc1C)C(=O)CCS(=O)(=O)c1ccc(C)cc1,"inconclusive [inhibitor, single point]"
13,C=C(C)C(=O)N1CC2(CC(c3cccc(NC(=O)/C=C\C=C/C)c3)=NO2)C[C@H]1C(N)=O (some centres not stated),"inconclusive [inhibitor, single point]"
14,CC(=O)c1ccc(N2CCN(S(=O)(=O)c3ccc4c(c3)CCC(=O)N4)CC2)cc1,inactive
15,COc1ccc(S(=O)(=O)N2CCN(C(=O)c3cc(-c4ccc(C)cc4)n[nH]3)CC2)cc1,"inconclusive [inhibitor, partial curve]"
16,CN(CC(=O)Nc1cccc(F)c1)CC(=O)Nc1cccc(S(=O)(=O)N2CCCCC2)c1,"inconclusive [inhibitor, partial curve]"
17,O=[N+]([O-])c1ccc(C=Nc2ccc(Cl)cc2Cl)s1,"inconclusive [inhibitor, single point]"
18,Clc1ccc(Cl)c(-c2nn3c(COc4ccccc4)nnc3s2)c1,inactive
19,Cc1cnc(CN(C)C(=O)C2CCC(=O)N(CCc3ccc(Cl)cc3)C2)[nH]1 (configuration not stated),inactive
20,CC(=O)OCC(C)n1c(=O)c2ccccc2n1C(C)=O (configuration not stated),inactive
21,CC1(C(=O)NC2CCCC2)CCC(=O)N1Cc1ccc2c(c1)OCO2 (configuration not stated),"inconclusive [inhibitor, single point]"
22,O=C(O)c1cccnc1Sc1ccc(Cl)cc1,"inconclusive [inhibitor, single point]"
23,c1ccc(-c2nc3nonc3c3nc4ccccc4n23)cc1,inactive

row,SMILES,Potency
1,CCCN(CC1CC1)c1nc(N)c2c(N)nc(OC)cc2c1C#N,"inconclusive [inhibitor, partial curve]"
2,Cc1cn(C2CCC(CO)O2)c(=O)[nH]c1=O (configuration not stated),"inconclusive [inhibitor, partial curve]"
3,CC(=O)N1N=C(c2cccc(NS(=O)(=O)c3ccc(C)cc3)c2)CC1c1ccco1 (configuration not stated),"inconclusive [inhibitor, full curve, poor fit]"
4,O=C(N[C@@H]1CC[C@@H](CCNS(=O)(=O)c2ccc(Cl)cc2)O[C@@H]1CO)c1cccnc1,inactive
5,O=C(COC(=O)CC(c1ccccc1)c1ccccc1)Nc1cccc(F)c1,"inconclusive [inhibitor, full curve, poor fit]"
6,C=C(C)CSc1nc2c(c(=O)[nH]c(=O)n2C)n1Cc1ccccc1,"inconclusive [inhibitor, partial curve]"
7,CC1=C(C(=O)OCc2ccccc2)C(/C=C/c2ccccc2)NC(=S)N1 (configuration not stated),"inconclusive [inhibitor, partial curve, poor fit]"
8,Cc1cc(Cl)ccc1OCC(=O)Nc1cccc(S(=O)(=O)NC2=NCCCCC2)c1,"inconclusive [inhibitor, single point]"
9,CCOC(=O)N1CCC(Nc2ccc3nnc(-c4ccccc4)n3n2)CC1,"inconclusive [inhibitor, full curve, poor fit]"
10,CCCCCCCCN1C(=O)[C@H](CC(=O)N2CCOCC2)C[C@@]2(C(=O)OCC)CCCC=C12,inactive
11,Oc1c(Br)cc(/C=N/n2c(-c3ccccc3)n[nH]c2=S)cc1Br,inactive
12,CC1CN(S(=O)(=O)c2ccccc2)CN1C(=O)N1CCOCC1 (configuration not stated),"inconclusive [inhibitor, full curve, poor fit]"
13,O=S(=O)(c1ccccc1)N1CCN=C1SCc1ccccc1Cl,inactive
14,O=C(NNc1c(Cl)cncc1Cl)c1cccs1,"inconclusive [inhibitor, single point]"
15,COc1ccc(-c2nc(NC3=NCCCCC3)sc2C)cc1,"inconclusive [inhibitor, single point]"
16,COc1cc(/C=C/C(=O)OCC(=O)NCCC2=CCCCC2)ccc1O,"inconclusive [inhibitor, partial curve]"
17,Cc1ccc(-n2c(-c3ccccc3)c[n+]3c2CCc2ccccc2-3)c(C)c1,"inconclusive [inhibitor, single point]"
18,CCn1c(SCc2ccc(C)cc2)nnc1-c1nn(-c2ccccc2)ccc1=O,"inconclusive [inhibitor, single point]"
19,Cc1ccc(S(=O)(=O)N(CC(=O)Nc2ccccc2-c2ccccc2)c2ccc(C)cc2C)cc1,"inconclusive [inhibitor, full curve, poor fit]"
20,COCCNC(=O)C1CCCN(C(=O)c2ccc3sccc3c2)CC1 (configuration not stated),inactive
21,Cn1nc(C(F)(F)F)c(C#N)c1N1CCN(c2ccccn2)CC1,"inconclusive [inhibitor, partial curve]"
